This is one part of the list.

The record followed here is the supplement of paper PMC11417369.

The test concerns PfHDP1 homeodomain (GST-tagged). Put plainly: gcPBM binding intensity (ln(normalized median fluorescence intensity)); higher = stronger DNA binding. In outline: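 GST-fused DNA-binding domains of P. falciparum, expressed in E. coli, were applied at about 25 μg on average for 1 h to an Agilent 4 × 180k array of primer-extended double-stranded 36-bp intergenic genomic probes and negative controls. Binding intensity is the highest Masliner-normalised natural-log median intensity across replicate spots of either probe orientation, measured with Alexa488 anti-GST antibody and a 488 nm scan.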
In the case of “TGGAAATTCTCAGGAGTGCATATTTGCAGTTTACGT [GTGCAC_site9768]”, the “gcPBM binding intensity (ln)” value is 8.86. Then “TTATATATTTTGATTGCACACAGAATTTAAATCATG [CACACA_site8735]”, with 9.09. Then “TTTAATCATTTTAGCTTACACACAAAATTTTGTTAT [CACACA_site2938]”, with 7.59; and “ATATATGTGCTAAAATGTACATAGTATAATATATTT [XGTACX_site1949]”, with 7.35; and “ATATTTAAGATTTAATCACACACATATATATTATAT [CACACA_site8946]”, with 6.53. For the sequence “ATAAAATAAAGGAAAAATATTAAGTTTTAAGAAAAT [CACACA_negctrl_site1066]”, the “gcPBM binding intensity (ln)” value amounted to 6.31. Then “AAAATATATTCAACTTGTACATATATATATATATAT [XGTACX_site7629]”, with 9.4. The value for “TTTTTTTTTTGCACGTGTACATAAAAATATATATAT [XGTACX_site3116]” was 9.36; that for “TTTTTGTAATGACACACACACAAACAGAAAAAATAA [CACACA_site7062]” was 6.76. “GGATTTTTCGAATCATGTACATATTTAATTAAAAAA [XGTACX_site7939]”: the “gcPBM binding intensity (ln)” value was determined as 6.44. Then “TACATAAACATTTATACACACATTATGTATACATAT [CACACA_site405]”, with 7.05; and “TATTTTTCCATATGCACACACACCGTATCTAGAATA [CACACA_site6654]”, with 10.4.

Regarding “AACTTTGGCAAACACACACACACACCCACACCCACA [CACACA_site588]”, the “gcPBM binding intensity (ln)” value was found to be 6.62. The value for “TAGAATGTATGTAGTGCACACCTCTATAATATATTA [CACACA_site1873]” was 10.5. Then “TTCTCACTTTTAAATTTTATTCAAAAATAAGGAAAG [XGTACX_negctrl_site444]”, with 6.56; and “GAGAGTAAAACAAATATACACACCATAAAGTTATAA [CACACA_site1686]”, with 6.47; and “ATTTCGTTCTTTTATGCACACTCAACATATAAATTA [CACACA_site8322]”, with 9.99. The value for “ATATATATATATAAATGTACATATGTATAATTCATA [XGTACX_site6679]” was 9.04. With “TTTTTATTGCAATACTTATATTTTTTTATGATTAAA [TGCATGCA_negctrl_site147]”, the “gcPBM binding intensity (ln)” value was 10.1.

In the case of “ATAATAATAAAGTATGCATGCATATAATATAATATA [TGCATGCA_site796]”, the “gcPBM binding intensity (ln)” value amounted to 6.99.

With “CAATAATATATATATTGTACATTTTTTTTTATTATT [XGTACX_site3149]”, the “gcPBM binding intensity (ln)” value turned out to be 6.64. For the sequence “AAAGATTCTTTGAATTGTACAAATATATTTACTCAC [XGTACX_site8772]”, the “gcPBM binding intensity (ln)” value amounted to 6.56. Then “TATATTATTTTCTTTTGTACACATATATATCAGTGT [XGTACX_site664]”, with 6.8; and “ATGTTCCATTTTACTTGTACTAATTTTTTCCTATCT [XGTACX_site6474]”, with 6.72; and “ATGATAATTTTTTTCTCACACACAAATATTTTAATC [CACACA_site3665]”, with 6.5. The value for “TTAATGGCAAAATAGGCACACACACCGATACATATA [CACACA_site8263]” was 6.77; that for “ATAATATTTAGGTGTGCACACAAACATACATATATA [CACACA_site9120]” was 10.9. Regarding “ACAGTAGCCAGTAACTGTACGGATTGTAGAGATCAG [XGTACX_site4873]”, the “gcPBM binding intensity (ln)” value worked out at 6.55. The value for “ATTATTTTTAAAAATTGTACAGTATAAGAGAGAAAT [XGTACX_site7094]” was 7.39; that for “AATAAAAAAATATATTGTACTAATAATTATATGTTT [XGTACX_site2246]” was 6.47.

As for “TATTGTAAAAAGATTACACACGTTCTATATACTTTT [CACACA_site5379]”, the “gcPBM binding intensity (ln)” value came to 6.46.

For the sequence “AAATCACATAAAACATAATCAAATGAAATATAATCA [CACACA_negctrl_site123]”, the “gcPBM binding intensity (ln)” value was 6.18. Then “TAAATATTATTATATACATGCACTTACAACTTTTTT [TGCATGCA_site877]”, with 7.3; and “ACTGTAAATTTATTCGGTACACATATAAATAATATT [XGTACX_site7346]”, with 6.54. “AAAAAATCACAACACACACACACACTAATAAAAAAA [CACACA_site8410]”: the “gcPBM binding intensity (ln)” value turned out to be 6.84. The value for “ATAAAGGTTTTCCAAGCATGCCACATAGTGACATAC [TGCATGCA_site193]” was 6; that for “CAATATAAAATAAAATGTACTTGTAGTAAAGGGATA [XGTACX_site1452]” was 6.66; that for “AGATAGATACATACACGTACATATATATATACACAT [XGTACX_site4755]” was 6.74.

As to “GATGAGGACAAACACACACACATAAGTTGATACATA [CACACA_site3424]”, the “gcPBM binding intensity (ln)” value was 6.91. Take “TTTATGGATGTGTATGCATGCCTAAATAAATATATG [TGCATGCA_site916]”: the “gcPBM binding intensity (ln)” value turned out to be 6.79.

Turning to “ACGACATATGGATGATGTACTATCTTTATTATACAT [XGTACX_site6857]”, the “gcPBM binding intensity (ln)” value came to 6.43. Then “TAAATAATGTAAAAAACATCATCAAAATGTTAATTA [CACACA_negctrl_site1768]”, with 5.58; and “TCTCAAAAAAAAAAAAAAAAAAAAAAATTAAAAAAT [CACACA_negctrl_site1120]”, with 5.51. Turning to “TGAAATTTATAATAGTGTACAAAGAAAAAAAAAAAA [XGTACX_site4965]”, the “gcPBM binding intensity (ln)” value was 6.48.

For “ATTAGAAAAAAGATAGCACACACGGCCCAATATATA [CACACA_site2417]”, the “gcPBM binding intensity (ln)” value amounted to 6.78. The value for “AAGGTTATATAAAAAAGTACGCATAAGATGTTGTTC [XGTACX_site807]” was 6.59; that for “TATTATAATATGTAGCGTACATTTTTTCTTTCTTTT [XGTACX_site7831]” was 6.49; that for “TATATTTATATTCTTACATTTTTTATGTTTTTTTTT [CACACA_negctrl_site1017]” was 6.11.

On to “AAAATAACATAAAAGAGTACTAAACCAAGATCAAAT [XGTACX_site7973]”, for which the “gcPBM binding intensity (ln)” value was found to be 6.88.

In the case of “TAAACAGACATATAAACACACATATAAACCGACATA [CACACA_site2478]”, the “gcPBM binding intensity (ln)” value is 6.76.

With “GTCATATTATTCTTTTCACACACGCGTTAATAATAA [CACACA_site9302]”, the “gcPBM binding intensity (ln)” value turned out to be 7.8.

In the case of “ATACCTAAAAAATATACACACATATTTATAAATATA [CACACA_site7260]”, the “gcPBM binding intensity (ln)” value turned out to be 6.71. The value for “TAGAATAAACCAAGAAGTACTGTTTAATGAAAAGTA [XGTACX_site5712]” was 6.72. The value for “TATAAATATATATATACACACACATACACAAAAAAA [CACACA_site9191]” was 7.13; that for “ATATATTATATGTACACACACATATAAGGGATTATA [CACACA_site5]” was 6.61. Then “TATTACTTGATATATACACACATATAACATAAATGC [CACACA_site7783]”, with 6.68.
